The whole screen tested about 310,000 compounds, of which about 14,000 (4.5%) showed an effect of 50% or more. The effect is printed as a negative number. The list shows a part of the results.
Target: human ether-à-go-go-related gene (hERG) potassium channel (human, UniProt Q12809)
Assay: primary screen, population patch clamp on CHO cells stably expressing hERG
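Note: peak tail current of the secondary pulse compared with the same well before compound.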

human ether-à-go-go-related gene (hERG) potassium channel, sequence (Q12809 whole entry, looked up): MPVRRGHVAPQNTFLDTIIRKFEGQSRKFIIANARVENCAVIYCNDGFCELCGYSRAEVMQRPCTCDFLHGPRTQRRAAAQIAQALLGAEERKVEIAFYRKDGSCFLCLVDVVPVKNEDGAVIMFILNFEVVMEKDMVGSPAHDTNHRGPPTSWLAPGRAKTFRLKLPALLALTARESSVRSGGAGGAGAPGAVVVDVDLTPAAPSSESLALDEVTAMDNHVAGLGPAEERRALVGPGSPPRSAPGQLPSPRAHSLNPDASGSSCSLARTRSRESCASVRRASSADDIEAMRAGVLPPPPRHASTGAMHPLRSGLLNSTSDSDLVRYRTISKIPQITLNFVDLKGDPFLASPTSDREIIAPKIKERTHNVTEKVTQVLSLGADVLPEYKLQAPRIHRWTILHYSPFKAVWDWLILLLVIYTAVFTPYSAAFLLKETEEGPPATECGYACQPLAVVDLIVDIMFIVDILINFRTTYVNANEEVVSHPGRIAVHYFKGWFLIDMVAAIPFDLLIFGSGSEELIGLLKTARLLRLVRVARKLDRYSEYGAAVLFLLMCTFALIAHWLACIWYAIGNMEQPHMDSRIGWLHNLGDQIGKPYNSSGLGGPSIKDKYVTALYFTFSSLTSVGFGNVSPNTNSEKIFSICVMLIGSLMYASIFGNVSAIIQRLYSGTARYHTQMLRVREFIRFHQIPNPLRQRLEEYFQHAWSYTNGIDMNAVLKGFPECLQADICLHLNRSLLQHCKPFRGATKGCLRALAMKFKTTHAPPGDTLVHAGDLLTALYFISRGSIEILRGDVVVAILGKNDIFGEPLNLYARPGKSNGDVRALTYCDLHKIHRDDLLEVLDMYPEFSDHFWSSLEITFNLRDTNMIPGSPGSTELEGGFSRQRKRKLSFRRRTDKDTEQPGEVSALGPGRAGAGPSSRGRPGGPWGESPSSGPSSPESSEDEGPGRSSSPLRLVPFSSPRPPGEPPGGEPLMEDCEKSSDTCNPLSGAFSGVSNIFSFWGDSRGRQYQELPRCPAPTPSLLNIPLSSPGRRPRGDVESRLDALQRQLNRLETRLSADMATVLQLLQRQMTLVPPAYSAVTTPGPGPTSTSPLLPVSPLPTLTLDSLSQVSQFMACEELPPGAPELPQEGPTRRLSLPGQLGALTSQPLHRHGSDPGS

`Cc1nn(CC(=O)NCCCN2CCCCC2)c(=O)c2cc(-c3ccccc3)nn12` was tested. Which “hERG current change (%, negative = inhibition) at 10uM” value did it give?
Its value is -49.4%.

`COc1cccc(Oc2cncnc2-c2ccc(OC)cc2O)c1` was tested. Which “hERG current change (%, negative = inhibition) at 10uM” value did it give?
Its value is -10.5%.

`CCOc1ccc(CN(CC)C(=O)Cc2c[nH]c3ccccc23)cc1OC` was tested. Which “hERG current change (%, negative = inhibition) at 10uM” value did it give?
Its value is -7.96%.

For `C=CCN1C(=O)c2ccc(C(=O)N(C)CC(=O)Nc3ccccc3Br)cc2C1=O`, which “hERG current change (%, negative = inhibition) at 10uM” value is on record?
Its value is 4.17%.

For `CC(=O)Oc1ccc(-c2csc(Nc3cccnc3)n2)cc1`, which “hERG current change (%, negative = inhibition) at 10uM” value is on record?
Its value is -9.85%.

How did the “hERG current change (%, negative = inhibition) at 10uM” value turn out when `CN(C)S(=O)(=O)c1ccc2c(c1)nc(CCC(=O)NCC1CCCCC1)n2C` was run?
Its value is -14.6%.

Which “hERG current change (%, negative = inhibition) at 10uM” value does the source give for `CCC1(CC)NC(=S)N(Nc2ccccc2)C1=O` here?
Its value is 9.67%.

`Cc1ccc(S(=O)(=O)Nc2cc(=O)[nH]c(SCC(=O)Nc3cccc(C)c3)n2)cc1` was tested. Which “hERG current change (%, negative = inhibition) at 10uM” value did it give?
The value was 1.89%.

For `Cc1ccc(NC(=O)c2cc3ccccc3cc2O)cc1`, which “hERG current change (%, negative = inhibition) at 10uM” value is on record?
The value was 10.6%.

`O=C(CCn1c(=S)oc2ccccc21)NC1CCCCCC1` was tested. Which “hERG current change (%, negative = inhibition) at 10uM” value did it give?
Its value is 7.94%.

How did the “hERG current change (%, negative = inhibition) at 10uM” value turn out when `CCN(C(=O)CSc1nnnn1-c1ccccc1OC)C1CCS(=O)(=O)C1` (stereo not shown) was run?
Its value is 21.2%.

`COc1ccc(N2CCN(C(=O)CS(=O)Cc3nc(-c4ccc(OC)c(OC)c4)oc3C)CC2)cc1` (stereo not shown) was tested. Which “hERG current change (%, negative = inhibition) at 10uM” value did it give?
Its value is 2.58%.

`O=C(O)CCCCNCc1ccccc1` was tested. Which “hERG current change (%, negative = inhibition) at 10uM” value did it give?
The value was 12.4%.

With `Cc1nc2cc(OCc3cc(C(=O)NC(C)c4cnn(C)c4)no3)ccc2s1` (stereo not shown) as the compound, how does the “hERG current change (%, negative = inhibition) at 10uM” value read?
The value was 9.18%.

`O=C(CSc1nnc(-c2ccccn2)o1)Nc1ccccc1C(F)(F)F` was tested. Which “hERG current change (%, negative = inhibition) at 10uM” value did it give?
The value was 20.7%.

`Cc1sc2nc(SCC(=O)NCc3ccco3)n(CCc3ccccc3)c(=O)c2c1C` was tested. Which “hERG current change (%, negative = inhibition) at 10uM” value did it give?
Its value is 9.67%.

Which “hERG current change (%, negative = inhibition) at 10uM” value does the source give for `CCOc1cc(/C=C2\C(=N)N3N=C(C)SC3=NC2=O)ccc1OCCOc1cccc(OC)c1` here?
Its value is 3.92%.

`[N-]=[N+]=NC1CC(CO)OC1n1ccc(=O)[nH]c1=O` (stereo not shown) was tested. Which “hERG current change (%, negative = inhibition) at 10uM” value did it give?
Its value is 2.45%.

Which “hERG current change (%, negative = inhibition) at 10uM” value does the source give for `COc1cccc(NC(=O)CCC2CCN(C(=O)c3cccc(NC(C)=O)c3)CC2)c1` here?
Its value is -28.4%.

With `COc1ccc(-n2c(=O)[nH]cc(C(=O)N3CCCc4ccccc43)c2=O)cc1` as the compound, how does the “hERG current change (%, negative = inhibition) at 10uM” value read?
The value was -1.98%.

For `O=C(Nc1ccccc1)c1ccc(=O)[nH]n1`, which “hERG current change (%, negative = inhibition) at 10uM” value is on record?
Its value is 17.3%.

How did the “hERG current change (%, negative = inhibition) at 10uM” value turn out when `COc1ccc(NC(=O)CN(C)C(=O)Cc2ccc(-c3ccccc3)cc2)cc1` was run?
Its value is 6.88%.

How did the “hERG current change (%, negative = inhibition) at 10uM” value turn out when `C=CCOC(=O)C1=C(C)NC(=O)NC1c1ccc(OC(=O)c2ccco2)c(OC)c1` (stereo not shown) was run?
Its value is 3.15%.

With `Cc1cccc(C)c1OCC(O)Cn1c2ccccc2c2ccccc21` (stereo not shown) as the compound, how does the “hERG current change (%, negative = inhibition) at 10uM” value read?
The value was 6.83%.

`COc1cc(OC)c(OC)cc1/C=C1\CC(C)C/C(=C\c2cc(OC)c(OC)cc2OC)C1=O` (stereo not shown) was tested. Which “hERG current change (%, negative = inhibition) at 10uM” value did it give?
The value was 7.36%.

How did the “hERG current change (%, negative = inhibition) at 10uM” value turn out when `CC(C)CN(C(=O)CN(C)C(=O)Cc1ccccc1Cl)c1c(N)n(CC(C)C)c(=O)[nH]c1=O` was run?
The value was 20.7%.

With `COc1cccc(CC(=O)OCC(=O)NC(=O)c2ccc(OC(F)F)cc2)c1` as the compound, how does the “hERG current change (%, negative = inhibition) at 10uM” value read?
Its value is -16.7%.

Which “hERG current change (%, negative = inhibition) at 10uM” value does the source give for `CCOC(=O)c1ccc(NC(=O)c2ccc(NS(C)(=O)=O)cc2)cc1` here?
The value was -8.5%.

How did the “hERG current change (%, negative = inhibition) at 10uM” value turn out when `Cc1c(Cl)cccc1NC(=O)Nc1ccc(C(=O)N2CCCC2)cc1` was run?
The value was -0.694%.

How did the “hERG current change (%, negative = inhibition) at 10uM” value turn out when `Cc1ccc2nc(SCC(=O)NCc3ccco3)nc(=O)n2c1` was run?
The value was 8.08%.

With `COC(=O)N/N=C\c1c(C)nn(-c2ccccc2)c1Cl` as the compound, how does the “hERG current change (%, negative = inhibition) at 10uM” value read?
The value was -12.7%.

With `CNC(=S)N1N=C(c2ccccc2)CC1c1ccccc1Cl` (stereo not shown) as the compound, how does the “hERG current change (%, negative = inhibition) at 10uM” value read?
Its value is 9.32%.

Which “hERG current change (%, negative = inhibition) at 10uM” value does the source give for `COc1ccccc1NC(=O)c1cnc(SC)nc1` here?
Its value is 19.2%.

With `COC(=O)C1=C(C)Nc2[nH]c(=S)[nH]c(=O)c2C1c1ccc(O)cc1` (stereo not shown) as the compound, how does the “hERG current change (%, negative = inhibition) at 10uM” value read?
Its value is 8.44%.

How did the “hERG current change (%, negative = inhibition) at 10uM” value turn out when `COc1cccc(CNC(=O)COc2cc3c(c4oc(=O)cc(C)c24)CCC(C)(C)O3)c1` was run?
The value was -3.43%.

How did the “hERG current change (%, negative = inhibition) at 10uM” value turn out when `C(=N\c1nc2ccccc2n1Cc1ccccc1)/c1cccs1` was run?
Its value is -6.17%.

`O=C(NCc1ccco1)c1sc(=S)n2c1[nH]c(=O)c1ccccc12` was tested. Which “hERG current change (%, negative = inhibition) at 10uM” value did it give?
The value was -16.8%.

Which “hERG current change (%, negative = inhibition) at 10uM” value does the source give for `CCOC(=O)/C=C/c1ccc2c(c1)S(=O)(=O)N(c1cccc(OC)c1)[C@H]2CC(=O)OCC` here?
Its value is -0.723%.

For `Cc1ccc(NC2CCCN(C(=O)CCCN3CCCCC3=O)C2)cc1C` (stereo not shown), which “hERG current change (%, negative = inhibition) at 10uM” value is on record?
The value was -2.7%.

For `O=C(O)C1=C[C@@H](c2ccc(Br)cc2)C[C@@H](OCc2ccc(CO)cc2)O1`, which “hERG current change (%, negative = inhibition) at 10uM” value is on record?
The value was 18.2%.

For `COCCn1c(C)cc(C(=O)CSc2nc3ccccc3s2)c1C`, which “hERG current change (%, negative = inhibition) at 10uM” value is on record?
Its value is 8.05%.

Which “hERG current change (%, negative = inhibition) at 10uM” value does the source give for `Fc1ccc(NC(=S)N2CCOCC2)cc1Cl` here?
The value was 17.7%.

How did the “hERG current change (%, negative = inhibition) at 10uM” value turn out when `CC(C(=O)N(C)C)N(C#N)c1nc(N(C)C)nc(N(C)C)n1` (stereo not shown) was run?
Its value is -8.07%.

With `Cc1cc(NC(=O)CSc2nc3ccccc3c(=O)n2CCCC(=O)NCc2ccccc2)n[nH]1` as the compound, how does the “hERG current change (%, negative = inhibition) at 10uM” value read?
Its value is -8.72%.

How did the “hERG current change (%, negative = inhibition) at 10uM” value turn out when `CC(C)CN(C(=O)c1ccc(S(=O)(=O)N2CCOCC2)cc1)C1CCS(=O)(=O)C1` (stereo not shown) was run?
Its value is 4.93%.

For `CCOC(=O)N1CCN(Cc2nc(-c3ccc(OC)cc3)no2)CC1`, which “hERG current change (%, negative = inhibition) at 10uM” value is on record?
The value was -4.74%.

For `COC(=O)C1CCN(C(=O)COC(=O)c2ccc3[nH]c4c(c3c2)CCCC4)CC1`, which “hERG current change (%, negative = inhibition) at 10uM” value is on record?
Its value is 8.9%.

`Cc1cccc(NC(=S)NNC(=O)CC(C)O)c1C` (stereo not shown) was tested. Which “hERG current change (%, negative = inhibition) at 10uM” value did it give?
Its value is 14.5%.

With `COc1cc(/C=C(\C#N)C(=O)Nc2cccc(C(=O)O)c2)ccc1OCc1ccc(F)cc1` as the compound, how does the “hERG current change (%, negative = inhibition) at 10uM” value read?
Its value is 22.6%.

How did the “hERG current change (%, negative = inhibition) at 10uM” value turn out when `Cc1csc(=O)n1CCC(=O)OCC(=O)Nc1cc([N+](=O)[O-])ccc1Cl` was run?
Its value is -46.1%.

Which “hERG current change (%, negative = inhibition) at 10uM” value does the source give for `COc1cc(-c2nnc3n2N=C(c2ccccc2)CS3)cc(OC)c1OC` here?
Its value is -8.51%.

`COc1cccc(-n2nc(C(N)=O)c(O)cc2=O)c1` was tested. Which “hERG current change (%, negative = inhibition) at 10uM” value did it give?
The value was 39.9%.

For `Nc1ccc(Nc2ccc([N+](=O)[O-])cc2[N+](=O)[O-])cc1`, which “hERG current change (%, negative = inhibition) at 10uM” value is on record?
The value was -11.3%.

For `Cc1cc([N+](=O)[O-])ccc1-c1ccc(C2Nc3ccccc3C(=O)N2O)o1` (stereo not shown), which “hERG current change (%, negative = inhibition) at 10uM” value is on record?
The value was -24.1%.

How did the “hERG current change (%, negative = inhibition) at 10uM” value turn out when `CCn1cc([N+](=O)[O-])c(C(=O)N2N=C(c3ccc(O)c(OC)c3)CC2c2ccccc2O)n1` (stereo not shown) was run?
The value was 16.4%.

— article PMC4336329 (PLoS ONE, 2015)
